The list shows a part of the results.
Each compound was assayed on Pseudomonas aeruginosa PA14 dppA1-A5 penta deletion mutant (assay: respiration area under curve with compound as sole nitrogen source, 24 h (OmniLog AUC (arbitrary units)); higher = more respiration / better utilisation as nitrogen source, active = 2000 or more). Conditions: plate: PM8.
Method: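 Biolog Phenotype MicroArray plates PM6-PM8: each di/tripeptide is the sole nitrogen source. Tetrazolium reduction was read in the OmniLog for 24 h at 37°C and summarised as area under the respiration curve (arbitrary units). Values below 2000 count as no respiration.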

Row | Compound | respiration area under curve
1 | N[C@@H](Cc1ccc(O)cc1)C(=O)NCC(=O)NCC(=O)O | active: 6190

From the supplement of paper PMC4206461
